# Source: the supplement of paper PMC8728848
# Some of the results follow.
# Columns and labels:
# Assay in all cases: glycan array binding signal (z-score within array); higher = stronger binding
# Conditions in all cases: glycan notation: IUPAC condensed, linker removed
# [1] = molecular target: Gal(b1-4)GlcNAc(b1-3)Gal(b1-4)GlcNAc(b1-3)Gal(b1-4)GlcNAc(b1-3)Gal(b1-4)GlcNAc(b1-2)[Gal(b1-4)GlcNAc(b1-3)Gal(b1-4)GlcNAc(b1-3)Gal(b1-4)GlcNAc(b1-3)Gal(b1-4)GlcNAc(b1-6)]Man(a1-6)[Gal(b1-4)GlcNAc(b1-3)Gal(b1-4)GlcNAc(b1-3)Gal(b1-4)GlcNAc(b1-3)Gal(b1-4)GlcNAc(b1-2)Man(a1-3)]Man(b1-4)GlcNAc(b1-4)[Fuc(a1-6)]GlcNAc
# Method in brief: (§1)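 The binding signal is a Z-score computed within each array. Data were drawn from 3228 arrays in the Consortium for Functional Glycomics database, restricted to those with a known protein sequence. Scores were averaged over arrays of the same protein sequence at different concentrations or buffers, and over linkers, and negative values can be taken as non-binding.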
# [2] = molecular target: Gal(b1-4)GlcNAc(b1-3)Gal(b1-4)GlcNAc(b1-3)Gal(b1-4)GlcNAc(b1-3)Gal(b1-4)GlcNAc(b1-3)Gal(b1-4)GlcNAc(b1-2)Man(a1-3)[Gal(b1-4)GlcNAc(b1-3)Gal(b1-4)GlcNAc(b1-3)Gal(b1-4)GlcNAc(b1-3)Gal(b1-4)GlcNAc(b1-3)Gal(b1-4)GlcNAc(b1-2)Man(a1-6)]Man(b1-4)GlcNAc(b1-4)GlcNAc
# Method in brief: as §1
# [3] = molecular target: Gal(b1-4)GlcNAc(b1-3)Gal(b1-4)GlcNAc(b1-3)Gal(b1-4)GlcNAc(b1-3)Gal(b1-4)GlcNAc(b1-3)Gal(b1-4)GlcNAc(b1-2)Man(a1-3)[Gal(b1-4)GlcNAc(b1-3)Gal(b1-4)GlcNAc(b1-3)Gal(b1-4)GlcNAc(b1-3)Gal(b1-4)GlcNAc(b1-3)Gal(b1-4)GlcNAc(b1-2)Man(a1-6)]Man(b1-4)GlcNAc(b1-4)[Fuc(a1-6)]GlcNAc
# Method in brief: as §1
# [4] = molecular target: Gal(b1-4)GlcNAc(b1-3)Gal(b1-4)GlcNAc(b1-3)Gal(b1-4)GlcNAc(b1-3)Gal(b1-4)GlcNAc(b1-3)Gal(b1-4)GlcNAc(b1-2)[Gal(b1-4)GlcNAc(b1-3)Gal(b1-4)GlcNAc(b1-3)Gal(b1-4)GlcNAc(b1-3)Gal(b1-4)GlcNAc(b1-3)Gal(b1-4)GlcNAc(b1-6)]Man(a1-6)[Gal(b1-4)GlcNAc(b1-3)Gal(b1-4)GlcNAc(b1-3)Gal(b1-4)GlcNAc(b1-3)Gal(b1-4)GlcNAc(b1-3)Gal(b1-4)GlcNAc(b1-2)Man(a1-3)]Man(b1-4)GlcNAc(b1-4)[Fuc(a1-6)]GlcNAc
# Method in brief: as §1
# [5] = molecular target: Gal(b1-4)GlcNAc(b1-3)Gal(b1-4)GlcNAc(b1-3)Gal(b1-4)GlcNAc(b1-3)Gal(b1-4)GlcNAc(b1-3)Gal(b1-4)GlcNAc(b1-3)Gal(b1-4)GlcNAc(b1-2)Man(a1-3)[Gal(b1-4)GlcNAc(b1-3)Gal(b1-4)GlcNAc(b1-3)Gal(b1-4)GlcNAc(b1-3)Gal(b1-4)GlcNAc(b1-3)Gal(b1-4)GlcNAc(b1-3)Gal(b1-4)GlcNAc(b1-2)Man(a1-6)]Man(b1-4)GlcNAc(b1-4)GlcNAc
# Method in brief: as §1
# [6] = molecular target: Gal(b1-4)GlcNAc(b1-3)Gal(b1-4)GlcNAc(b1-3)GalNAc
# Method in brief: as §1
# [7] = molecular target: Gal(b1-4)GlcNAc(b1-3)Gal(b1-4)GlcNAc(b1-3)[Gal(b1-4)GlcNAc(b1-3)Gal(b1-4)GlcNAc(b1-6)]GalNAc
# Method in brief: as §1
# [8] = molecular target: Gal(b1-4)GlcNAc(b1-3)Gal(b1-4)GlcNAc(b1-6)[Gal(b1-3)]GalNAc
# Method in brief: as §1
# [9] = molecular target: Gal(b1-4)GlcNAc(b1-3)Gal(b1-4)[Fuc(a1-3)]GlcNAc(b1-3)Gal(b1-4)[Fuc(a1-3)]GlcNAc
# Method in brief: as §1
# [10] = molecular target: Gal(b1-4)GlcNAc(b1-3)GalNAc
# Method in brief: as §1
# [11] = molecular target: Gal(b1-4)GlcNAc(b1-3)[Fuc(a1-3)GlcNAc(b1-6)]Gal(b1-4)Glc
# Method in brief: as §1
# [12] = molecular target: Gal(b1-4)GlcNAc(b1-3)[Gal(b1-4)GlcNAc(b1-6)]Gal(b1-4)GlcNAc
# Method in brief: as §1
# [13] = molecular target: Gal(b1-4)GlcNAc(b1-3)[GlcNAc(b1-6)]Gal(b1-4)GlcNAc
# Method in brief: as §1
# [14] = molecular target: Gal(b1-4)GlcNAc(b1-6)Gal(b1-4)GlcNAc
# Method in brief: as §1
# [15] = molecular target: Gal(b1-4)GlcNAc(b1-6)GalNAc
# Method in brief: as §1
# [16] = molecular target: Gal(b1-4)GlcNAc(b1-6)[Gal(b1-3)]GalNAc
# Method in brief: as §1
# [17] = molecular target: Gal(b1-4)GlcNAc(b1-6)[Gal(b1-4)GlcNAc(b1-3)]GalNAc
# Method in brief: as §1
# [18] = molecular target: Gal(b1-4)GlcNAc6P
# Method in brief: as §1
# [19] = molecular target: Gal(b1-6)Gal
# Method in brief: as §1
# [20] = molecular target: Gal3S(b1-3)GalNAc
# Method in brief: as §1
# [21] = molecular target: Gal3S(b1-3)GlcNAc
# Method in brief: as §1
# [22] = molecular target: Gal3S(b1-3)[Fuc(a1-4)]GlcNAc
# Method in brief: as §1
# [23] = molecular target: Gal3S(b1-4)Glc
# Method in brief: as §1
binder,measurement,setting,value
Fm1D (Escherichia coli) (protein) FSCNVDGGSSIGAGTTSVYVNLDPVIQPGQNLVVDLSQHISCWNDYGGWYDTDHINLVQGSAFAGSLQSYKGSLYWNNVTYPFPLTTNTNVLDIGDKTPMPLPLKLYITPVGAAGGVVIKAGEVIARIHMYKIATLGSGNPRNFTWNIISNNSVVMPTHHHHHH,glycan array binding signal (z-score),[1],-0.137
same,glycan array binding signal (z-score),[2],-0.142
same,glycan array binding signal (z-score),[3],-0.14
same,glycan array binding signal (z-score),[4],-0.132
same,glycan array binding signal (z-score),[5],-0.138
same,glycan array binding signal (z-score),[6],-0.147
same,glycan array binding signal (z-score),[7],-0.146
same,glycan array binding signal (z-score),[8],3.82
same,glycan array binding signal (z-score),[9],-0.139
same,glycan array binding signal (z-score),[10],-0.144
same,glycan array binding signal (z-score),[11],-0.149
same,glycan array binding signal (z-score),[12],-0.145
same,glycan array binding signal (z-score),[13],-0.141
same,glycan array binding signal (z-score),[14],-0.144
same,glycan array binding signal (z-score),[15],-0.137
same,glycan array binding signal (z-score),[16],10.7
same,glycan array binding signal (z-score),[17],-0.14
same,glycan array binding signal (z-score),[18],-0.15
same,glycan array binding signal (z-score),[19],-0.047
same,glycan array binding signal (z-score),[20],-0.127
same,glycan array binding signal (z-score),[21],-0.132
same,glycan array binding signal (z-score),[22],-0.143
same,glycan array binding signal (z-score),[23],-0.146
